Results as given in PubChem BioAssay AID463173 (ICCB-Longwood Screening Facility, Harvard Medical School, 2010).
The whole screen tested about 52,000 compounds, of which about 4,300 (8.3%) were called active. Rule as the data show it: active = survival mostly below about 52% (no sharp cut-off); inactive = mostly above about 56%. The list shows a part of the results.

These compounds were tested on DeltatarO mutant (assay: growth inhibition of S. aureus wild type versus tarO mutant, primary screen, teichoic acid synthesis inhibitors, RN4220, OD600 (AID 463173)). Settings: OD600, 18 h, hits give low values, screened at 18.75 µg/mL (by protocol).

Row | SMILES | survival
1 | CC1CCN(c2nc3c(S(=O)(=O)c4cccc(Cl)c4)nnn3c3ccsc23)CC1 | inactive: 81%
2 | COc1cc([N+](=O)[O-])ccc1NC(=O)N1CCC2(CC1)Nc1cc(F)ccc1-n1cccc12 | active: 46%
3 | CC(C)(C)OC(=O)N1CCC(c2c(C(=O)N3CCN(c4ncccn4)CC3)cnn2-c2ccc(F)cc2)CC1 | active: 17%
4 | CCOC(=O)c1c(-c2ccc(OC)cc2)oc2ccc(OCc3ccc(F)cc3F)cc12 | active: 38%
5 | Cc1ccccc1Nc1nnc(-c2ccc(C)c(S(=O)(=O)NCC3CCCO3)c2)c2ccccc12 (configuration not stated) | inactive: 79%
6 | CN(C)c1ccc(CNC(=O)C2CCN(C(=O)c3ccc(-n4ccc5ccccc54)s3)CC2)cc1 | inactive: 80%
7 | CCn1cc(/C=C(\NC(=O)c2ccc(OC)c(OC)c2)C(=O)NCCCn2ccnc2)c2ccccc21 | inactive: 113%
8 | CCOC(=O)c1cc(-c2ccc(OC)cc2)n(CCC(=O)NCCc2ccc(OCC)c(OCC)c2)c1C | inactive: 69%
9 | Cc1ccc(NC(=O)N2CCC(CN3CCCCC3)CC2)c(Cl)c1 | inactive: 77%
10 | C=CCn1cc(/C=C(/C#N)C(=O)OCC)c2ccccc21 | inactive: 83%
11 | Cc1ccc(OCC(=O)Nc2ccc(C(=O)OCc3cc(=O)n4ccsc4n3)cc2)cc1C | inactive: 101%
12 | CC(=O)c1ccc(N2CCN(S(=O)(=O)c3ccc(-c4cnc(C5CC5)o4)cc3)CC2)cc1 | inactive: 73%
13 | COC(CN1C(=O)c2ccccc2C1=O)OC | inactive: 56%
14 | Cc1nc2sccn2c(=O)c1S(=O)(=O)Nc1cccc(Cl)c1C | inactive: 68%
15 | CCC1=C(c2ccc(C)cc2)S(=O)(=O)N=C1N1CCC(C(=O)NCCc2cccc(OC)c2)CC1 | inactive: 76%
16 | COc1cccc2c1cc1c(=O)n(CC(=O)NCCCN3CCN(C)CC3)nc(C)n12 | inactive: 100%
17 | COc1ccc(OCCCn2c(C)nc3cc(C)c(C)cc32)cc1 | inactive: 52%
18 | O=C1Nc2c(c(=O)[nH]c(=O)n2-c2ccc(F)cc2)C1(NS(=O)(=O)c1ccc(Cl)cc1)C(F)(F)F (configuration not stated) | inactive: 59%
19 | Cn1nnnc1SCCCNCc1cc(Cl)ccc1OCc1ccccc1 | inactive: 72%

Row | SMILES | survival
20 | CCOC(=O)c1ccc(NC(=O)C(CC)Sc2nncn3c2cc2oc(C)cc23)cc1 (configuration not stated) | inactive: 56%
21 | Cc1cn2c(=O)cc(COC(=O)c3ccc(NC(=O)c4ccc(C(C)(C)C)cc4)cc3)nc2s1 | active: 20%
22 | CCC(Oc1ccccc1)C(=O)Nc1ccc(Cl)cn1 (configuration not stated) | inactive: 102%
23 | COc1ccc(CNS(=O)(=O)c2csc(C(N)=O)c2)cc1OC | inactive: 85%
24 | COc1ccc(C2=Nc3ccccc3N(CC(=O)Nc3cccc(C(C)=O)c3)C(=O)C2)cc1 | inactive: 116%
25 | c1cncc(CNC2CCCc3ccccc32)c1 (configuration not stated) | inactive: 74%
26 | CCCCNc1nc2c(-c3cccc(Br)c3)nnn2c2ccccc12 | inactive: 101%
27 | CCc1ccc2occ(CC(=O)NCc3ccccc3)c2c1 | inactive: 109%
28 | CCOc1ccc(C(=O)Nc2ccc(Cl)c(-c3nc4cc(C)cc(C)c4o3)c2)cc1 | inactive: 66%
29 | COc1ccc(-c2nc3sc(CCNC(=O)c4ccc(C(C)(C)C)cc4)c(C)n3n2)cc1 | inactive: 122%
30 | CCOc1ccccc1C(=O)Nc1cc2c(cc1C)n(C)c(=O)c(=O)n2C | inactive: 90%
31 | COc1ccc(CNC(=O)CN(C)S(=O)(=O)c2ccc3[nH]c4c(c3c2)CCCC4)cc1 | inactive: 70%
32 | Nc1nc(OC(C(F)(F)F)C(F)(F)F)nc(OC(C(F)(F)F)C(F)(F)F)n1 | active: 13%
33 | CC(C)c1ccc(NC(=O)c2cc(S(=O)(=O)NCCC3=CCCCC3)ccc2F)cc1 | inactive: 75%
34 | COc1ccc(NC(=O)Cc2ccc(NC(=O)N3CCCCc4ccccc43)cc2)c(OC)c1 | active: 47%
35 | CCN(CC)CCNC(=O)Cn1cnc2sc(C)c(S(=O)(=O)N3CCC(C)CC3)c2c1=O | inactive: 105%
36 | COC(=O)c1ccc(OCC2c3cc(OC)c(OC)cc3CCN2C(=O)Cc2ccc(OC)c(OC)c2)cc1 (configuration not stated) | inactive: 87%
37 | CC(C)c1nn2c(=O)cc(COC(=O)c3ccc4c(c3)OCO4)nc2s1 | inactive: 94%
38 | Cc1cn2c(=O)c(S(=O)(=O)NCCc3ccc(Cl)cc3)c(C)nc2s1 | inactive: 78%

Row | SMILES | survival
39 | COc1cc(C(=O)Nc2nnc(CC(C)(C)C)s2)cc(OC)c1OC | inactive: 105%
40 | CCc1ccc(NC(=O)C2CCCN2S(=O)(=O)c2cccc3nsnc23)cc1 (configuration not stated) | inactive: 117%
41 | CC(=O)N1CCc2c(sc3c2c(=O)n(-c2ccccc2)c(=O)n3CC(=O)c2ccc(F)cc2)C1 | inactive: 89%
42 | CSc1cccc(NC(=O)c2ccc3c(c2)CCCN3S(C)(=O)=O)c1 | inactive: 63%
43 | CCCCCCn1c(/C=C/c2ccccc2)nc2ccccc21 | active: 1%
44 | O=C(O)CC(NC(=O)Cc1ccccc1)c1ccccc1 (configuration not stated) | inactive: 99%
45 | COc1ccc(NC(=O)c2ccc3[nH]c(C)cc(=O)c3c2)cc1 | inactive: 95%
46 | Cc1ccc(-n2cc(C(=O)OCc3ccc(Cl)cc3)c3ccccc3c2=O)cc1 | inactive: 67%
47 | Cc1ccc(NC(=O)Cc2coc3c(C)c(C)ccc23)c(C)c1 | inactive: 96%
48 | Cc1ccc(CNC(=O)CN2C(=O)COc3ccc(S(=O)(=O)N4CCC(C)CC4)cc32)cc1 | inactive: 110%
49 | CC(C)(C)n1nnnc1C(c1ccc2ncccc2c1)N1CCc2ccccc21 (configuration not stated) | inactive: 74%
50 | O=C(O)CC1SC(=Nc2ccc(O)cc2)NC1=O (configuration not stated) | inactive: 95%
51 | CCS(=O)(=O)Nc1ccc(Cc2ccncc2)cc1 | inactive: 103%
52 | COc1cc(C2Oc3nc(SC)nnc3-c3ccccc3N2C(C)=O)cc(Cl)c1OC (configuration not stated) | inactive: 66%
53 | Cc1ccc(-n2ncc3c(NCc4ccccc4)ncnc32)cc1C | inactive: 70%
54 | Cc1cc(Br)ccc1NC(=O)c1sc2ncn(Cc3ccccc3Cl)c(=O)c2c1C | inactive: 72%
55 | NCc1oc(-c2ccccc2)cc1C(=O)O | inactive: 102%
56 | O=C(CSc1oc(-c2ccco2)nc1S(=O)(=O)c1ccc(Br)cc1)c1ccc(Cl)cc1 | inactive: 52%
57 | Cc1ccc(C)c(NC(=O)CN(Cc2ccccc2)S(=O)(=O)c2ccc3nc(C)sc3c2)c1 | inactive: 80%
